Source: PubChem BioAssay AID488969 (Vanderbilt High Throughput Screening Facility, 2010)
In all, about 110,000 compounds were measured (“z-score”: median about -0.1, highest 2% from about 2 on). This is one part of the list. The source made the active and inactive calls.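 The calls were made as follows: active = z-score in the third read window above 3 or below -3; inactive = the rest.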

The molecules below were run against Metabotropic glutamate receptor 8 (Rattus norvegicus) (UniProt P70579) (assay: mGluR8 Gi/Go-coupled signaling modulation – cell-based, rat, thallium flux, HTS, primary screen (AID 488969)). Conditions: HEK293 rat mGluR8, GIRK (G protein-gated inwardly rectifying potassium channel) thallium flux, FluoZin2; at 10 µM; stronger effect = higher value; submaximal glutamate (EC20) added with thallium.
Sequence of UniProt P70579 (P70579 whole entry, looked up): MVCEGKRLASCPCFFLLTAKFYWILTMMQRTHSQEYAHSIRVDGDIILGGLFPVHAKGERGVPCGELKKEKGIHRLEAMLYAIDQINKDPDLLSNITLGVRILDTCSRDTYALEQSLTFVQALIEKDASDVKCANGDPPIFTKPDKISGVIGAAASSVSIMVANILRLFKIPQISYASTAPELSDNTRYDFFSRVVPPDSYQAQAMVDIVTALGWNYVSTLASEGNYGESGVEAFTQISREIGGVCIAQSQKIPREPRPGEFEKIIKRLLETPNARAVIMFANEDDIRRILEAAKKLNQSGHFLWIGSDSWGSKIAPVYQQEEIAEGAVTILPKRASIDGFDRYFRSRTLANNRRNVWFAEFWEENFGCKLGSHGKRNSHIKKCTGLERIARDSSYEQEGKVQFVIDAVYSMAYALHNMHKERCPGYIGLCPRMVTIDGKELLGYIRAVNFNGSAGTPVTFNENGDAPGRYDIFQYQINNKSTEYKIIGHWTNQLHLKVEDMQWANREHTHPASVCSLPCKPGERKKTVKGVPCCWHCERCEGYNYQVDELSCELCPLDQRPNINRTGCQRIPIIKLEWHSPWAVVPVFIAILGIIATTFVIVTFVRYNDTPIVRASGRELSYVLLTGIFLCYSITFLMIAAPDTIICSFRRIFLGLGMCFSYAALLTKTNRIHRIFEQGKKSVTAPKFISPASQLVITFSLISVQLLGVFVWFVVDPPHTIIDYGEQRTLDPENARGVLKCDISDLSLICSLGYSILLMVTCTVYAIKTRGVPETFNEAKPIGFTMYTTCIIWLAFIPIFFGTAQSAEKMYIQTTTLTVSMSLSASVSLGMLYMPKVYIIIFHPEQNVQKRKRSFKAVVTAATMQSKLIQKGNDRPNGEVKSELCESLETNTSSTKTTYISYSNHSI

| SMILES | z-score |
| --- | --- |
| c1ccc(CCNc2ncnc3scc(C4COc5ccccc5O4)c23)cc1 (configuration not stated) | -0.657 |
| CCOc1ccc(C(=O)c2ccncc2)cc1 | -0.477 |
| O=C1C2C3C=CC(C3)C2C(=O)N1c1n[nH]c(CCc2ccccc2)n1 (configuration not stated) | 0.0315 |
| Cc1c(NS(=O)(=O)c2cccc(C(=O)NCc3ccc(Cl)cc3)c2)c(=O)n(-c2ccccc2)n1C | -0.838 |
| CC(=O)Oc1ccc(/C=c2\sc3ncnn3c2=O)cc1 | 0.968 |
| CCOc1ccc(NC(=O)COC(=O)c2ccc3c(c2)C(=O)N(CCc2ccccc2)C3=O)cc1 | 0.708 |
| COc1cccc(Nc2cc(C)nc3ccccc23)c1 | 2.53 |
| N#CC12CCCCC1CC1CCCCC1(C#N)N2Cc1cccnc1 (configuration not stated) | 0.401 |
| Cn1nnnc1SCC(=O)Nc1ccccc1Cc1ccccc1 | 0.0715 |
| Cc1cc(C)n2c(SCc3ccccc3Cl)nnc2n1 | -0.528 |
| O=C(O)C1C2C=CC(C2)C1C(=O)N1CCN(CCO)CC1 (configuration not stated) | -0.388 |
| CSc1sc(C)cc1C1C(C#N)=C(N)N(c2cccnc2)C2=C1C(=O)CCC2 (configuration not stated) | -0.583 |
| Cc1ccc2nsnc2c1NC(=O)c1ccc(-c2cc(Cl)ccc2Cl)o1 | -0.432 |
| COCCCn1c(SCC(=O)N(C)C)nnc1-c1ccccc1 | -0.348 |
| N#Cc1cccnc1Nc1cccc(Cl)c1 | -0.154 |
| Clc1ccc(OCc2cn3cccnc3n2)c2ncccc12 | 0.932 |
| Cc1ccc(C)c(NC2=NC3(CCCCC3)N=C(N)N2)c1 | -0.297 |
| COc1cccc(NC(=O)Cc2nnc(SCCOc3ccccc3)n2C)c1 | -0.161 |
| C/C(O)=C\c1nc2ccccc2oc1=O | 0.253 |

| SMILES | z-score |
| --- | --- |
| Cc1cc(C)c(S(=O)(=O)N2CCCOC2CNC(=O)C(=O)NCCc2c[nH]c3ccccc23)c(C)c1 (configuration not stated) | 0.117 |
| Cc1cc(C(=O)N2CCN(C/C=C/c3ccccc3)CC2)no1 | 0.57 |
| COc1ccc(Cc2c(Cl)ncnc2Cl)cc1 | 0.301 |
| COc1ccc(CCC(=O)Nc2nc3ccccc3[nH]2)cc1OC | 0.784 |
| CSc1cccc(NC(=O)CN(Cc2ccc(Cl)cc2)S(C)(=O)=O)c1 | 1.13 |
| COC(=O)c1cccc(NC(=O)CCNC(=O)c2ccc([N+](=O)[O-])cc2)c1 | -0.0412 |
| COc1cc(OC)cc(C2C(C#N)=C(N)Oc3n[nH]c(-c4cccnc4)c32)c1 (configuration not stated) | -1.51 |
| CCOC(=O)N1CCC(NC(=O)C(Cc2ccccc2)NC(=O)c2ccco2)CC1 (configuration not stated) | 0.125 |
| Cc1nc2c(-c3ccc(F)cc3)c(C)nn2c(C)c1CCC(=O)NC(C)CCc1ccco1 (configuration not stated) | -0.796 |
| O=C(O)CCCCCNC(=O)c1ccccc1 | -1.23 |
| COc1ccc(N(C(=O)c2ccc(Cl)cc2)C2=CC3CCC(C2)N3C)cc1 (configuration not stated) | 1.47 |
| O=C(Nc1ccc2nc(-c3ccco3)[nH]c2c1)c1ccco1 | 0.934 |
| CCOc1ccc(C(=S)NC2CCCCC2)cc1 | -0.292 |
| O=C(COC(=O)C1CC1)Nc1ccc(OC(F)F)cc1 | -0.197 |
| CCNC(=S)Nc1ccc(C)c(Cl)c1 | -0.148 |
| COc1cccc(/C=N/NC(=O)C(=O)NCc2ccco2)c1OC | -0.14 |
| Cc1cc(C)n2ncc(C(=O)NCc3ccc(Cl)cc3)c2n1 | -0.391 |
| Cc1ccc(NC(=O)CNc2ccc(OC(C)C)cc2)c(C)c1 | -0.129 |
| Cc1c(C(=O)N2CCN(c3ccccc3F)CC2)sc2nc(-c3ccccc3)cn12 | 0.376 |

| SMILES | z-score |
| --- | --- |
| COc1ccc(N2CCN(C(=O)CN(c3ccccc3)S(=O)(=O)c3ccc(OC)cc3)CC2)cc1 | -0.0102 |
| COc1ccc(-c2csc(Nc3cccnc3)n2)cc1OC | -0.0895 |
| COc1ccc(Nc2nc(C)cc(C)c2C#N)cc1OC | active: 6.74 |
| C(=N\N(c1ccccc1)c1ccccc1)/c1ccc(N2CCOCC2)s1 | -0.146 |
| CS(=O)(=O)N1N=C(c2ccccc2)CC1c1cccs1 (configuration not stated) | -0.136 |
| COCCCn1[nH]c2c3c(ccc2c1=O)C(=O)c1ccccc1C3=O | -0.214 |
| CCC(CC)C(=O)c1c[nH]c(C(=O)NCCCn2ccnc2)c1 | 0.112 |
| CN(C)S(=O)(=O)c1ccc(NC(=O)N2CCN(c3cccc(C(F)(F)F)c3)CC2)cc1 | -0.474 |
| CC1CN(S(=O)(=O)c2ccc(NC(=O)c3ccco3)cc2)CC(C)O1 (configuration not stated) | -0.255 |
| Cn1c(=O)c2c(nc(CN3CCN(C(=O)c4ccco4)CC3)n2Cc2ccc(Cl)cc2)n(C)c1=O | -0.465 |
| COc1cnc(-c2ccccn2)nc1Sc1ccccc1Cl | -0.743 |
| CC(=O)COc1ccccc1OC(=O)c1ccco1 | -0.243 |
| Cc1cc(C)n(-c2nc3c(c(=O)[nH]c(=O)n3C)n2CC(O)COc2ccc(Cl)cc2Cl)n1 (configuration not stated) | -0.148 |
| C=C(C)c1cccc(C(C)(C)NC(=O)N2CCN(c3ccc(OC)cc3)CC2)c1 | -0.0296 |
| O=C(NC(=S)N(Cc1ccccc1)Cc1ccccc1)c1ccccc1F | -1.15 |
| CCOC(=O)c1sc(N(Cc2ccccc2)C(=O)CN2C(=O)CN(C)C2=O)nc1C | 0.75 |
| CC(C)CN(CC(C)C)C1=N/C(=C\c2ccco2)C(=O)N1c1ccccc1 | 0.265 |
| C=CCOc1cccc(C2/C(=C(/O)c3ccc(Cl)cc3)C(=O)C(=O)N2CCN2CCOCC2)c1 (configuration not stated) | -0.349 |
| Cc1ccc(-n2nc(C)c3c2OC(N)=C(C#N)C3c2ccc(C)o2)cc1 (configuration not stated) | 0.761 |
